Measured values from the antibiotic and cytotoxicity screens of Wong et al. (2023).
The other results are listed elsewhere or left out.

system: S. aureus RN4220; test: growth inhibition call (relative growth <= 0.2); settings: 50 µM

Growth inhibition call, inactive:
C[C@H](CO)N1C[C@H](C)[C@@H](CN(C)S(=O)(=O)c2cccs2)Oc2ccc(NC(=O)c3ccncc3)cc2C1=O, O=C(O)CCNC(=O)c1cccc([N+](=O)[O-])c1, CN(C)C(=O)C[C@@H]1CC[C@@H]2[C@H](COC[C@H](O)CN2S(=O)(=O)c2ccc(Oc3ccccc3)cc2)O1, Cc1ccc(S(=O)(=O)NC(=O)NN2CCCCCC2)cc1, C[C@H](CO)N1C[C@H](C)[C@@H](CN(C)C(=O)Nc2cccc3ccccc23)Oc2c(NC(=O)c3ccc(-c4nccs4)cc3)cccc2C1=O, CC(C)NC(=O)N(C)C[C@H]1Oc2ccc(NS(=O)(=O)c3ccc(Cl)cc3)cc2C(=O)N([C@H](C)CO)C[C@@H]1C, C[C@@H]1CN([C@@H](C)CO)C(=O)Cc2cc(NC(=O)c3ccncc3)ccc2O[C@@H]1CN(C)Cc1ccc(-c2ccccc2)cc1, C[C@@H]1CN([C@@H](C)CO)C(=O)c2cc(NC(=O)Nc3ccc(F)cc3)ccc2O[C@H]1CN(C)C(=O)Nc1ccc(C(F)(F)F)cc1, COCC#Cc1ccc([C@H]2[C@@H](CO)N3C(=O)CN(C(=O)CN4CCOCC4)C[C@@H]23)cc1, O=C(Cn1cnnn1)NS(=O)(=O)c1ccccc1
